PubChem BioAssay AID485360 (National Center for Advancing Translational Sciences (NCATS), 2010)
In all, about 230,000 compounds went through this assay and about 1,500 (0.65%) were called active. The shares of active, inactive and inconclusive entries below differ from those in the screen. Calls follow the shape of the dose curve; as a rule, active = well fitted inhibition curve with a large enough effect; inconclusive = small, poorly fitted or top-dose-only effect; inactive = no such curve, though single readings can be large or run the other way. Potencies of inconclusive entries are doubtful fits and often do not repeat. Numbered stars: 1 amine (or outer) side, 2 acyl side, 3 side chain; on linkers, the order of the positions; unused ones are H or OH. Bridge positions count the residues as written; N and C are the ends. Square brackets hold non-standard residues; d marks the D form. Peptide text beside a SMILES is read from it. ξ: configuration not given here. hSer(Ph(2-I,4-NO2,6-CO)) = O=C([C@H](CCOc1c(I)cc([N+](=O)[O-])cc1C(=O)[*:3])N[*:1])[*:2]; ξD = NC(CC(=O)O)C(=O)O

Molecular target: Lethal(3)malignant brain tumor-like protein 1 (Homo sapiens) (UniProt Q9Y468)
Assay: qHTS Assay for the Inhibitors of L3MBTL1; also: nearly all actives have a fitted effect of over 60% in size
Settings: AlphaScreen L3MBTL1–H3K9me1 peptide binding; series mostly up to 57.1 µM
How it was run: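 First, the protein-peptide complex forms for 30 min at room temperature (L3MBTL1 50 nM, biotinylated H3K9me1 peptide 75 nM). Next, compounds are pin-transferred and incubated 30 min. Finally, AlphaScreen beads are added and read after 30 min.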
Potency is read from the fitted curve at half-maximal effect; tags tell the direction and shape of the fitted curve.

Sequence of UniProt Q9Y468 (Q9Y468 whole entry, looked up): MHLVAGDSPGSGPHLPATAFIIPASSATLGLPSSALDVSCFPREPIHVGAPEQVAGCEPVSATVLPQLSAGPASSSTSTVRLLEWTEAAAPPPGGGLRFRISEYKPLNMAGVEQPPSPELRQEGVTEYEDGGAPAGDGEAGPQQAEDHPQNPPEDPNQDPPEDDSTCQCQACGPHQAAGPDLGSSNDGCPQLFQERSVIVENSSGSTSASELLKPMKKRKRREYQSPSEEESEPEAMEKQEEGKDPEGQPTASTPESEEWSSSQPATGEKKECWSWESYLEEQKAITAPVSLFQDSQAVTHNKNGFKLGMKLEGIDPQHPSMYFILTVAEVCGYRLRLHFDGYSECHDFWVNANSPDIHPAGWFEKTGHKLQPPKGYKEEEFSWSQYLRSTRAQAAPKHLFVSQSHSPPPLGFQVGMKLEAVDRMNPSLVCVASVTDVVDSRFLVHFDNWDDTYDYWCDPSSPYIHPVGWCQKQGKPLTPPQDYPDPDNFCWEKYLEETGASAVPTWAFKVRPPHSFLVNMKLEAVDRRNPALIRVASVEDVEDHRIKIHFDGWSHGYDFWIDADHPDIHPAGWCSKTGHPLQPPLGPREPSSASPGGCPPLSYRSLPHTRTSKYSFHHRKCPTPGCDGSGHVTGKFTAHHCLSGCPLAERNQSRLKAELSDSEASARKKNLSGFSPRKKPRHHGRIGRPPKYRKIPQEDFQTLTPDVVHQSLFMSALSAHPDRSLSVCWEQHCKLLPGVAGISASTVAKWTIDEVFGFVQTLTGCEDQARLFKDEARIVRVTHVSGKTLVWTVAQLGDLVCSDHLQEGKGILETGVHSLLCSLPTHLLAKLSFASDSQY

Compound	Potency
COc1cc(/C=C/C(=O)OCC(=O)N2CCN(S(=O)(=O)c3ccc(C)cc3C)CC2)ccc1O	inconclusive: 35.5 µM [inhibitor, single point]
CC(C)N1C(=O)/C(=C/c2nc3ccccc3c(=O)n2-c2ccccc2)c2ccccc21	inconclusive: 17.8 µM [inhibitor, partial curve]
CCOC(=O)N1CCN(Cc2nc(N)nc(Nc3ccc(Oc4ccccc4)cc3)n2)CC1	inconclusive: 39.8 µM [inhibitor, partial curve]
CCOC(=O)Nc1ccc2c(COC(=O)C(NS(=O)(=O)c3ccc(Cl)cc3)C(C)O)cc(=O)oc2c1 (configuration not stated)	inconclusive: 14.1 µM [inhibitor, partial curve, poor fit]
CSc1ccc(C2C(C#N)=C(N)Oc3c2ccc(=O)c2c(C)oc(C)c32)cc1 (configuration not stated)	inconclusive: 39.8 µM [inhibitor, single point]
c1ccc2[nH]c(NN=C3CCCCCC3)nc2c1	inconclusive: 28.2 µM [inhibitor, partial curve]
O=C1NN(c2ccccc2)C(=O)/C1=C\c1ccc(-c2cc([N+](=O)[O-])ccc2O)o1	inconclusive: 7.94 µM [inhibitor, partial curve]
O=C(NC(Cc1ccccc1)C(=O)O)/C(=C/c1ccco1)NC(=O)c1cccc(Br)c1 (configuration not stated)	inconclusive: 25.1 µM [inhibitor, single point]
O=C(CSc1nncs1)NCCCc1ccccc1	inconclusive: 0.1 µM [inhibitor, full curve, poor fit]
NC(=O)C(CC(=O)O)NC(=O)[C@@H]1CCOc2c(I)cc([N+](=O)[O-])cc2C(=O)N[C@@H](CO)C(=O)N[C@@H](Cc2ccc(O)cc2)C(=O)N1 (some centres not stated) (SY[hSer(Ph(2-I,4-NO2,6-CO))][ξD]-NH2; lactam N-3)	inconclusive: 31.6 µM [inhibitor, single point]
O=C(Oc1ccc(-c2cnc3ccccc3n2)cc1)c1ccc(Cl)c([N+](=O)[O-])c1	inconclusive: 5.62 µM [inhibitor, single point]
Cc1nc2cc(-c3cccs3)nn2c(NCC(C)(C)CN(C)C)c1C	inactive
Cc1ccc(NC(=O)CC2S/C(=N/N=C3/NC(=O)CS3)NC2=O)cc1 (configuration not stated)	inconclusive: 39.8 µM [inhibitor, single point]
CCN(CC)c1cc(Cl)c2nonc2c1N	inconclusive: 25.1 µM [inhibitor, single point]
CCN(C(=O)COC(=O)c1ccc2ccccc2n1)c1c(N)n(Cc2ccccc2)c(=O)[nH]c1=O	inactive
O=c1c2cc(NC(=S)NCc3ccccn3)ccc2nc2n1CCCCC2	inactive
Cc1cc(N2CCC(C)CC2)nc(-n2nc(C)cc2C)n1	inconclusive: 0.794 µM [inhibitor, single point]
COc1ccccc1OCC#CCn1ccnc1	inactive
Oc1ccc(-c2csc(Nc3cccc4ccccc34)n2)cc1O	active: 25.1 µM
Cc1cccc(OCc2nc(C#N)c(N3CCCC3)o2)c1	inconclusive: 14.1 µM [inhibitor, partial curve]
CC(Oc1ccccc1)C(=O)Nc1nc(-c2ccccn2)cs1 (configuration not stated)	inconclusive: 28.2 µM [inhibitor, partial curve]
CCOC(=O)CCCCC(=O)c1[nH]c(=O)[nH]c1CSc1nnc2c3cc(Br)ccc3n(C)c2n1	inconclusive: 44.7 µM [inhibitor, single point]
CCOC(=O)C(C)n1nc(-c2ccccc2)c2ccccc2c1=O (configuration not stated)	inconclusive: 0.316 µM [inhibitor, full curve, poor fit]

Compound	Potency
CCC(C)NC(=O)Nc1ccc(Br)cc1 (configuration not stated)	inactive
O=C(O)c1cc(=O)c2ccccc2[nH]1	inactive
Cc1ncc(CO)c(/C=N/NC(=O)c2ccc(O)cc2)c1O	inconclusive: 39.8 µM [inhibitor, single point]
O=C(O)CC1C(=O)NCCN1Cc1ccc(F)c(F)c1 (configuration not stated)	inconclusive: 5.01 µM [inhibitor, full curve]
CCOC(=O)/C(=N\Nc1ccccc1[N+](=O)[O-])c1csc(N)n1	inconclusive: 15.8 µM [inhibitor, partial curve]
COCCN(C(=O)CSc1nnc(-c2ccccc2F)o1)c1c(N)n(CC(C)C)c(=O)[nH]c1=O	inconclusive: 5.62 µM [inhibitor, single point]
COc1ccc(CCN(C)C(=O)C2CCN(Cc3cccc(OC)c3OC)CC2)cc1OC	inactive
C#CCOCCOCCOCCNc1nc(N2CCN(C(=O)Cn3cc(CCCCN)nn3)CC2)nc(N2CCN(C(=O)[C@H](C)n3cc(CCCN=C(N)N)nn3)CC2)n1	inactive
Cc1ccc2nc(SCc3ccc([N+](=O)[O-])cc3)nc(C)c2c1	inconclusive: 35.5 µM [inhibitor, single point]
O=C(CSc1nc2[nH]c(=O)cc(O)c2s1)NCCc1ccccc1	inconclusive: 31.6 µM [inhibitor, partial curve]
Nn1c(SC/C=C/c2ccccc2)nnc1-c1ccccn1	inconclusive: 28.2 µM [inhibitor, single point]
CCOc1cc(/C=N/Nc2ccccc2Cl)ccc1OCC(=O)O	inconclusive: 39.8 µM [inhibitor, single point]
CCOc1ccccc1N1CCN(C(=O)c2ccc3[nH]c4c(c3c2)CCCC4)CC1	inactive
O=C(CCNC(=O)c1ccccc1Cl)Nc1ccc(Cl)c(C(F)(F)F)c1	inconclusive: 0.1 µM [inhibitor, full curve]
CC1=NN(c2ccccc2)C(=O)/C1=C\c1ccc(Oc2ccc([N+](=O)[O-])cc2[N+](=O)[O-])cc1	inconclusive: 7.94 µM [inhibitor, partial curve]
O=C(NCCCl)C1Cc2c(ccc3ccccc23)O1 (configuration not stated)	inactive
Cc1ccc(C(=O)NN2C(=O)/C(=C/c3cccn3C)SC2=S)cc1	inconclusive: 17.8 µM [inhibitor, single point]
OC1CCN(c2c3c(nc4cc(-c5ccc(Cl)cc5)nn24)CCC3)CC1	inconclusive: 12.6 µM [inhibitor, partial curve, poor fit]
Cc1ccc2c(c1)[C@H]1[C@H](CO2)[C@H](c2ccccc2)[C@]2(C)C(=O)N(Cc3ccco3)CC(=O)N12	inconclusive: 31.6 µM [inhibitor, single point]
COc1ccc(S(=O)(=O)N(CC(=O)NCc2ccco2)C2CCCCC2)cc1OC	inactive
Cc1cccc(/C=C/C(=O)c2ccc([N+](=O)[O-])o2)c1	inactive
CC(=O)C1=C(c2ccccc2)NC(=S)NC1c1ccc(O)c(O)c1 (configuration not stated)	inconclusive: 25.1 µM [inhibitor, partial curve]
Cc1ccc2nc(SCC(=O)NC(=O)NCc3ccco3)[nH]c2c1	inconclusive: 12.6 µM [inhibitor, single point]

Compound	Potency
COc1cccc(N=c2oc3cc(O)ccc3cc2C(=O)NCC2CCCO2)c1 (configuration not stated)	inactive
O=C(N/N=C/C=C/c1ccco1)c1cnccn1	active: 7.08 µM
O=C(Nc1cc(C(F)(F)F)ccc1N1CCOCC1)c1c(F)c(F)c(F)c(F)c1F	inconclusive: 6.31 µM [inhibitor, single point]
CN1CCN(C2=Cc3ccccc3Sc3cc(F)c(F)cc32)CC1	inactive
CCN(CC)C(=O)CN(C)S(=O)(=O)c1cccc2nsnc12	inactive
O=C(N/N=C/c1cc(Br)cc(Br)c1O)c1cccc(N2CCCC2=O)c1	inconclusive: 0.794 µM [inhibitor, full curve, poor fit]
CSc1cccc(N2CC(C(=O)N(CC(C)C)c3c(N)n(Cc4ccccc4)c(=O)[nH]c3=O)CC2=O)c1 (configuration not stated)	inconclusive: 28.2 µM [inhibitor, single point]
Cc1ccc(S(=O)(=O)NCCC(=O)OCc2ccc([N+](=O)[O-])cc2)cc1C	inactive
Nc1cnccc1C(=O)O	inconclusive: 17.8 µM [inhibitor, partial curve, poor fit]
Cc1cc(NC(c2cccnc2)c2ccc3cccnc3c2O)no1 (configuration not stated)	inconclusive: 25.1 µM [inhibitor, single point]
COc1ccc(-c2nnc(SCC(=O)NC(C)c3ccccc3)o2)cc1 (configuration not stated)	inconclusive: 39.8 µM [inhibitor, single point]
CCCn1nc(C(=O)Nc2nc(-c3ccccn3)cs2)c2ccccc2c1=O	inconclusive: 39.8 µM [inhibitor, single point]
Cc1csc(NC(=O)C(Cc2ccccc2)n2cccc2)n1 (configuration not stated)	inconclusive: 31.6 µM [inhibitor, single point]
O=C(O)c1ccc2c(c1)C(=O)N([C@H](Cc1c3ccccc3cc3ccccc13)C(=O)O)C2=O	inactive
CCN(CC)c1ccc(NC(=S)NC(=O)Cc2ccccc2)cc1	inconclusive: 31.6 µM [inhibitor, partial curve]
CCNc1nc(NCC)nc(N/N=C(\C)c2ccc(OC)cc2)n1	inconclusive: 25.1 µM [inhibitor, partial curve]
OC(CNC1CCCCC1)COCCOc1ccc(Br)cc1 (configuration not stated)	inactive
Cc1ccc(-n2cc(CN3CCN(Cc4nccn4C)CC3)c(-c3ccc(F)cc3)n2)cc1	inconclusive: 14.1 µM [inhibitor, partial curve]
COc1cc(CNn2c(C)n[nH]c2=S)cc(Cl)c1OCC(=O)NC(C)(C)C	inactive
CC(=O)[C@H]1[C@H](C#N)C[C@H]2[C@@H]3CC=C4C[C@@H](O)CC[C@]4(C)[C@H]3CC[C@@]21C	inactive
COc1ccc(C2N(c3ccccc3)CCN2c2ccccc2)cc1O	inconclusive: 28.2 µM [inhibitor, partial curve]
